Test results published in PubChem BioAssay AID881 (National Center for Advancing Translational Sciences (NCATS), 2007).
Hit rate of the full screen: of about 110,000 compounds, about 610 (0.55%) were called active. Inconclusive means that the source gave no clear call. Such entries were picked first, then a sample of the others. The call rests on the fitted dose curve; in most records, active means well fitted inhibition curve with a large enough effect; inconclusive means small, poorly fitted or top-dose-only effect; inactive means no such curve, though single readings can be large or run the other way. Potencies beside an inconclusive call are fits to weak or partial responses and may not hold up.

target: Polyunsaturated fatty acid lipoxygenase ALOX15B (Homo sapiens) (UniProt O15296); assay: qHTS Assay for Inhibitors of 15-hLO-2 (15-human lipoxygenase 2); conditions: purified 15hLO-2, xylenol orange hydroperoxide absorbance; activity change, negative = inhibition: at 57.1 µM (top of the series) unless noted; further: nearly all actives have a fitted effect of over 60% in size
Chain of UniProt O15296 (O15296 whole entry, looked up): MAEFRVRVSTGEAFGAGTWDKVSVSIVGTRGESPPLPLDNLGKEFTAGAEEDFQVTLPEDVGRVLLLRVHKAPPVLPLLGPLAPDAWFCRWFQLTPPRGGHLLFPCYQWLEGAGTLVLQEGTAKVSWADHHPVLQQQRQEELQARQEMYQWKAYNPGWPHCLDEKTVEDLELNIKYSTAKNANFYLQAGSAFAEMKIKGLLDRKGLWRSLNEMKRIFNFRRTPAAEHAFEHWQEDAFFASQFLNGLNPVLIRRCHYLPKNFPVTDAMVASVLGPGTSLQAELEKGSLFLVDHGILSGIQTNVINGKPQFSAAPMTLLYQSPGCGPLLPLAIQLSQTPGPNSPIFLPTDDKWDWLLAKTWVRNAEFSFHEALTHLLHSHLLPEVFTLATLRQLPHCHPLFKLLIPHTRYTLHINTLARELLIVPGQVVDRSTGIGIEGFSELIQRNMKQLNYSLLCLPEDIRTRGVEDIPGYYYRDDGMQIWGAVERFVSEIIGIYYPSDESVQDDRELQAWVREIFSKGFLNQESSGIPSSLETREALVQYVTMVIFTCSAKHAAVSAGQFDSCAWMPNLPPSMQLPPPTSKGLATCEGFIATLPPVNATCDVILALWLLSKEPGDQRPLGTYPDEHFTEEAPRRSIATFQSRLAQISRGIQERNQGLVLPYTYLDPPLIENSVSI
How it was run: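 Enzyme 50 nM, AA 45 uM, 25 mM Hepes pH 7.5 + 0.01% Triton X-100; cpd preinc 15 min RT, rxn 90 min RT; stop/detect with 200 uM XO + 300 uM Fe(II) in 50 mM H2SO4, 30 min; A573/A405.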
On the % scale 0 is the no-effect control and ±100 the full control effect; potency means the concentration at half of the fitted maximal effect; tags describe the fitted curve by direction and shape.

Row | Compound | Potency | activity change, negative = inhibition
1 | c1coc(-c2nc3nc4ccccc4nc3n2-c2ccc3c(c2)OCCO3)c1 | inconclusive: 31.6 µM [inhibitor, single point] | 
2 | CC(C)OCCCNc1ncnc2c1[nH]c1ccc(F)cc12 | inconclusive: 0.251 µM [inhibitor, full curve] | 
3 | O=S(=O)(C/C(=C/CO)S(=O)(=O)c1ccccc1)c1ccccc1 |  | inactive: -1.66%
4 | CN1CCN(CCCBr)CC1 |  | inactive: -7.3% [at 11.4 µM]
5 | COc1ccc(NC(=O)c2cc(Cl)ccc2NC(=O)c2ccco2)c(OC)c1 | inconclusive: 31.6 µM [inhibitor, single point] | 
6 | O=C(c1ccc2ccccc2n1)N1CCN(c2ccccc2O)CC1 |  | inactive: -10.4%
7 | Cc1cc(/C=C2\SC(N)=NC2=O)c(C)n1-c1ccccc1 | inconclusive: 15.8 µM [inhibitor, partial curve] | 
8 | S=C(NCc1ccco1)Nc1ccc(Cl)c(Cl)c1 | inconclusive: 20 µM [inhibitor, partial curve] | 
9 | CC(C)=CCl |  | inactive: 3.84%
10 | Cc1cc(C)c2c(c1)C1C=CCC1C(c1ccc(S(=O)(=O)N3CCOCC3)cc1)N2 (stereo not given) | inconclusive: 7.94 µM [inhibitor, partial curve] | 
11 | CC(C)OC(=O)CN1CCN(C2c3ccccc3-c3ccccc32)CC1 |  | inactive: 14.3%
12 | N#CC1=C(N)Oc2cc(O)ccc2C1C1CCCCC1 (stereo not given) | inconclusive: 25.1 µM [inhibitor, partial curve] | 
13 | Cc1cccc(NC(=S)NN(Cc2ccccc2)c2ccccc2)c1C | inconclusive: 15.8 µM [inhibitor, partial curve] | 
14 | O=C(OCCCN=C1NS(=O)(=O)c2ccccc21)c1ccccc1F |  | inactive: -5.14%
15 | Cc1ccc(-c2nnn(CC(=O)Nc3ccc(S(=O)(=O)N4CCC(C)CC4)cc3)n2)cc1 | inconclusive: 25.1 µM [inhibitor, single point] | 
16 | CCOC(=O)Cn1c(S(=O)(=O)Cc2ccc(F)cc2)nc(-c2ccccc2)c1-c1ccccc1 |  | inactive: -9.78%
17 | Cc1[nH]c2ccccc2c1C1(O)C(=O)N(Cc2ccc3c(c2)OCO3)c2ccccc21 (stereo not given) | inconclusive: 39.8 µM [inhibitor, single point] | 
18 | COc1ccc2c(c1)C1(C)CC(C)(C)N2C(=O)N1c1ccccc1 (stereo not given) | inconclusive: 20 µM [inhibitor, partial curve, poor fit] | 
19 | CC(C)(C)C(=O)[C@@H]1[C@@H]2C(=O)N(c3ccc4c(c3)OCCO4)C(=O)[C@@H]2C2c3ccccc3C=CN21 (stereo not given in full) | inconclusive: 12.6 µM [inhibitor, partial curve] | 
20 | CC(C)C(=O)N(c1ccc2oc(=O)sc2c1)S(=O)(=O)c1cccs1 | inconclusive: 20 µM [inhibitor, partial curve] | 
21 | FC(F)Sc1ccc(NC(=S)NC2CCC(NC(=S)Nc3ccc(SC(F)F)cc3)CC2)cc1 (stereo not given) | inconclusive: 7.94 µM [inhibitor, full curve] | 
22 | COc1cc2oc(=O)cc(-c3ccc(-c4ccc(O)cc4)cc3)c2c(OC)c1OC | inconclusive: 17.8 µM [inhibitor, partial curve] | 
23 | Cc1ccc(N/N=C2/CCCNC2=O)cc1 | inconclusive: 12.6 µM [inhibitor, partial curve] | 
24 | Oc1ccc(COCc2ccccc2)c2cccnc12 | inconclusive: 39.8 µM [inhibitor, single point] | 

Row | Compound | Potency | activity change, negative = inhibition
25 | COCCCNC(=S)NNC(=S)Nc1ccc(F)cc1F | inconclusive: 25.1 µM [inhibitor, partial curve] | 
26 | CCc1ccc2[nH]c(=O)c(CN(Cc3ccc4c(c3)OCO4)C(=O)c3ccco3)cc2c1 | inconclusive: 0.316 µM [inhibitor, full curve, poor fit] | 
27 | C=C1c2c(Cl)ccc(O)c2C(O)=C2C(=O)[C@@]3(O)C(O)=C(C(N)=O)C(=O)[C@@H](N(C)C)[C@@H]3[C@@H](O)[C@H]12 |  | inactive: 10.2% [at 25.6 µM]
28 | CN1CCN(c2ccnc(-c3ccoc3)n2)CC1 | inconclusive: 39.8 µM [inhibitor, single point] | 
29 | O=C(NCc1ccc(F)cc1)c1cc(-c2cccs2)on1 | inconclusive: 39.8 µM [inhibitor, single point] | 
30 | CCn1c(N)c(C(=O)NCc2ccco2)sc1=S | inconclusive: 3.98 µM [inhibitor, full curve] | 
31 | O=C(CSc1nnc2c3ccccc3c3ccccc3c2n1)Nc1ccccc1 | inconclusive: 39.8 µM [inhibitor, single point] | 
32 | O=C1c2ccccc2C(=O)N1CCSc1n[nH]c(=S)s1 | inconclusive: 31.6 µM [inhibitor, single point] | 
33 | CCOC(=O)c1c(OCC)[nH]c2c1cc(O)c1ccccc12 | inconclusive: 12.6 µM [inhibitor, partial curve] | 
34 | Cc1c2cc[n+](CCN3CCCCC3)cc2c(C)c2c1[nH]c1ccc(O)cc12 |  | inactive: 13.2% [at 11.4 µM]
35 | O=C(NC1CCCc2ccccc21)c1cccnc1 (stereo not given) |  | inactive: -6.79%
36 | O=C1OCCN1C(=O)[C@H]1[C@H](c2ccccc2)C(c2ccccc2)=NN1c1ccc(Br)cc1 | inconclusive: 22.4 µM [inhibitor, single point] | 
37 | CC(C)(C)OC(=O)[C@H]([C@@H]1N[C@@H](C(=O)O)C(C)(C)S1)N1C(=O)c2ccccc2C1=O |  | inactive: -5.01% [at 11.4 µM]
38 | CCN(CC)C(=S)SSC(=S)N(CC)CC | inconclusive: 10 µM [inhibitor, partial curve] [middle of 4 runs] | 
39 | Cc1ccc2nc(NC(=S)NC(=O)c3ccc(OC(C)C)cc3)sc2c1 | inconclusive: 1.26 µM [inhibitor, partial curve] | 
40 | O=C(CCCCCN1C(=O)c2cccc3cccc(c23)C1=O)NO | inconclusive: 31.6 µM [inhibitor, single point] | 
41 | CC1CCN(S(=O)(=O)c2ccc(NC(=S)NC(=O)c3ccc(Cl)cc3)cc2)CC1 | inconclusive: 15.8 µM [inhibitor, partial curve] | 
42 | COc1ccc(/C=C2\NC(=S)N(CC3CCCO3)C2=O)c(OC)c1C (stereo not given) | inconclusive: 25.1 µM [inhibitor, single point] | 
43 | N#Cc1cc(Oc2cccc3cccnc23)c(-n2nnc3ccccc32)cc1C#N | inconclusive: 20 µM [inhibitor, partial curve] | 
44 | COc1ccc(/C=N/n2c(-c3cccs3)n[nH]c2=S)cc1 | inconclusive: 12.6 µM [inhibitor, partial curve] | 
45 | Cc1cc2ncn(C3CC(=O)N(C)C3=O)c2cc1C (stereo not given) |  | inactive: -2.33%
46 | COc1ccccc1/C=C/C(=O)NC(=S)N(C)C1CCCCC1 | inconclusive: 7.94 µM [inhibitor, partial curve] | 
47 | Cc1ccc2c(c1)[nH]c1c(N3CCN(Cc4ccccc4)CC3)ncnc12 |  | inactive: 90.3%
48 | Cc1ccc2c(c1)c1c3n2CC(=C2C(=O)OC(C)(C)OC2=O)NC3CCC1 (stereo not given) | inconclusive: 20 µM [inhibitor, partial curve] | 

Row | Compound | Potency | activity change, negative = inhibition
49 | O=C1/C(=C/c2cccnc2)Sc2ccccc21 | inconclusive: 12.6 µM [inhibitor, partial curve] | 
50 | COc1cc(NC(=O)c2cccs2)c(C(=O)OCC(=O)NC(=O)NCc2ccccc2)cc1OC |  | inactive: -28.2%
51 | Cc1nnc2n(Cc3ccccc3)c(=O)c3c4c(sc3n12)COC(C)(C)C4 |  | inactive: 2.24%
52 | O=C1OC(Nc2ccc3c(c2)OCO3)c2ccccc21 (stereo not given) | inconclusive: 25.1 µM [inhibitor, single point] | 
53 | Cc1cccc(NC(=O)CC2SC(=O)N(c3ccccc3)C2=O)c1 (stereo not given) | inconclusive: 15.8 µM [inhibitor, partial curve] | 
54 | CC(C)c1cc(Nc2cccc(O)c2)cc(C(C)C)c1O | active: 12.6 µM | 
55 | S=c1ccss1 | inconclusive: 20 µM [inhibitor, partial curve] | 
56 | COCCCNC(=O)Cn1nc(-c2ccc(C)cc2)ccc1=O | inconclusive: 0.316 µM [inhibitor, full curve, poor fit] | 
57 | CCCCCCCCNC(=O)CCNC(=O)c1ccc(C(C)(C)C)cc1 |  | inactive: -4.68%
58 | Cn1c(N)c(C(=O)COC(=O)CCCc2c[nH]c3ccccc23)c(=O)n(C)c1=O |  | inactive: 1.44%
59 | COc1ccc(C(=O)NCS(=O)(=O)c2ccc(C)cc2)cc1 | inconclusive: 0.251 µM [inhibitor, full curve, poor fit] | 
60 | Cc1nc2ccccc2c(=O)n1NC(=O)Nc1ccccc1 |  | inactive: 4.72%
61 | Cc1ccc(Cn2c(C)nc3c(c2=O)c2nc4ccccc4nc2n3Cc2ccco2)cc1 | inconclusive: 7.94 µM [inhibitor, partial curve] | 
62 | COc1cc(/C=N\Nc2ccc([N+](=O)[O-])cc2)ccc1OCC(=O)Nc1ccc(C)c(C)c1 | inconclusive: 15.8 µM [inhibitor, partial curve] | 
63 | O=c1c(-c2ccccc2)nc2cnc(N3CCOCC3)nc2n1CCc1ccccc1 |  | inactive: 3.77%
64 | CCOC(=O)c1c(-c2ccco2)csc1N | inconclusive: 15.8 µM [inhibitor, partial curve] | 
65 | CCC(=O)N1CCc2cc(S(=O)(=O)CCC(=O)Nc3cccc(F)c3)ccc21 | inconclusive: 25.1 µM [inhibitor, single point] | 
66 | COc1cccc(-c2ccc3ncnc(N4CCOCC4)c3c2)c1 |  | inactive: 3.44%
67 | Cc1ccc(-n2nc(C)c3c2OC(N)=C(C#N)C3c2ccoc2)cc1 (stereo not given) |  | inactive: -10.4%
68 | CCc1ccccc1N(C)C(=O)CCc1nc(-c2ccc(C)cc2)no1 |  | inactive: 10.2%
69 | COc1cc(CNn2c(C)n[nH]c2=S)cc(Cl)c1OCc1ccccc1 | inconclusive: 10 µM [inhibitor, partial curve] | 
70 | CC12CC3(C)CC(C)(C1)CC(C(=O)NC(=S)N1CCOCC1)(C2)C3 | inconclusive: 20 µM [inhibitor, partial curve] | 
